# Laboratory results from PMC4336329 (PLoS ONE, 2015).
# About 2,200 (0.71%) of roughly 310,000 compounds showed an effect of 50% or more. Effects have a minus sign here. The list shows a part of the results.
# Molecular target: human ether-à-go-go-related gene (hERG) potassium channel (human, UniProt Q12809)
# Assay: primary screen, population patch clamp on CHO cells stably expressing hERG
# human ether-à-go-go-related gene (hERG) potassium channel, sequence (Q12809 whole entry, looked up): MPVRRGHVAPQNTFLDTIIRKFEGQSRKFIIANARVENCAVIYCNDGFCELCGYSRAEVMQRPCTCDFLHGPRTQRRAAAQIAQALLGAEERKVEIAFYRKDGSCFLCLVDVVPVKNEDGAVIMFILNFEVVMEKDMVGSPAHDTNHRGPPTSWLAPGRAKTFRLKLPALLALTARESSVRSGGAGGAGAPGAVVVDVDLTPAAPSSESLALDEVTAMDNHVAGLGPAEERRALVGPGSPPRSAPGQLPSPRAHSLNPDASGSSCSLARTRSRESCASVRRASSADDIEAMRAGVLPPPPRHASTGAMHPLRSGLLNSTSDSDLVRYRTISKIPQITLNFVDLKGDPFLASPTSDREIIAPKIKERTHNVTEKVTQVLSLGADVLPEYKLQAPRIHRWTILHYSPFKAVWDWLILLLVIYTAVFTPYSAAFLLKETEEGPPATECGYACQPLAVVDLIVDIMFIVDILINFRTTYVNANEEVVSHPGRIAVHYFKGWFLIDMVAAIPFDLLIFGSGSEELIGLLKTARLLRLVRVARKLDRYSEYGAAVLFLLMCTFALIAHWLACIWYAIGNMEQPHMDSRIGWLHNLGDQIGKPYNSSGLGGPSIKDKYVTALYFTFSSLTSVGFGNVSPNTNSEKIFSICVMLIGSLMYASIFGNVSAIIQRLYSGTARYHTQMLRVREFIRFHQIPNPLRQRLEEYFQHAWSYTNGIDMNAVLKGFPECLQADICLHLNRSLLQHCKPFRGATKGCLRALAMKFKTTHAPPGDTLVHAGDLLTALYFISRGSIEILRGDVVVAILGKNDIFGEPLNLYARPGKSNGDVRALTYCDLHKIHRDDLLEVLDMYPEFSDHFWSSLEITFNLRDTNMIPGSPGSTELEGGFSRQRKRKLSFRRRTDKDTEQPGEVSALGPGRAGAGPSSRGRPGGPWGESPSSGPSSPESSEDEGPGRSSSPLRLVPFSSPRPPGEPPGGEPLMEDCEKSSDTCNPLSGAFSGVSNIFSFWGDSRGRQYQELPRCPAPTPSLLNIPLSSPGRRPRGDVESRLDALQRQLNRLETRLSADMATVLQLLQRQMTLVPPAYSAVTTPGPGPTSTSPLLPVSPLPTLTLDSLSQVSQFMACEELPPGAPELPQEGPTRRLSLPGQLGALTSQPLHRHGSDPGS
row,SMILES,"hERG current change (%, negative = inhibition) at 1uM"
1,COC(=O)/C(C#N)=C/c1c(N2CCN(c3ccccc3)CC2)nc2ccccn2c1=O,-21.6%
2,COC(=O)c1ccc(COc2ncnc3ccccc23)o1,18.3%
3,Cc1c(C(=O)OC(C)C)sc(NC(=O)C2CCCO2)c1C(=O)OC(C)C (centres unmarked),9.74%
4,O=C(c1cccs1)N1CCCC(c2nc3c(nnn3Cc3ccc(F)cc3)c(=O)[nH]2)C1 (centres unmarked),16%
5,COc1ccc(Nc2c(-c3ccc(OC)cc3)nc3cnccn23)cc1,-6.44%
6,CCn1nc(NS(=O)(=O)c2ccccc2)c2cc3cccc(C)c3nc21,7.16%
7,O=C(Cn1nc(C(F)(F)F)c2c1CCCC2)NCc1ccco1,-11.9%
8,CN(C)C(=O)Oc1noc2cc(Cl)ccc12,12.5%
9,CC1(C)CC(=O)C=C(Nc2ccc(Br)cn2)C1,10.5%
10,Cc1noc(/C=C/N(C)C)c1S(=O)(=O)N1CCCC(C(=O)NCCC2=CCCCC2)C1 (centres unmarked),3.61%
11,CN(CC(=O)Nc1ccc(S(=O)(=O)N2CCCC2)cc1)CC(=O)Nc1ccc(F)c(F)c1F,-2.71%
12,CC1(c2ccccc2)NC(=O)N(CC(=O)Nc2ccccc2N2CCCC2)C1=O (centres unmarked),7.44%
13,COc1cccc(NS(=O)(=O)c2ccc(S(=O)(=O)N3CCOCC3)cc2)c1,-3.54%
14,CC1CCCCC1NC(=O)C1CCN(S(=O)(=O)c2cccc3nonc23)CC1 (centres unmarked),12.4%
15,COc1ccc(CCNC(=O)CN(c2ccc(OC)c(OC)c2)S(C)(=O)=O)cc1,-1.61%
16,CCc1nnc(NC(=O)CSc2nnc(-c3ccco3)o2)s1,9.81%
17,COc1ccc(S(=O)(=O)N2CCN(Cc3ccco3)CC2)cc1.O=C(O)C(=O)O,17.3%
18,Cc1c(C(=O)OC2CCC(C)CC2)[nH]c2c1C(=O)CCC2 (centres unmarked),4.17%
19,NC(=O)c1ccc(NCc2ccco2)c([N+](=O)[O-])c1,12.9%
20,COc1ccc(C(C(=O)NC2CCCCC2)N(C(=O)c2cccs2)c2ccc3c(c2)OCO3)cc1 (centres unmarked),14.3%
21,CC1CC1C(=O)Nc1nc(-c2ccc(Cl)s2)cs1 (centres unmarked),14.5%
22,CC(C)CN(Cc1cc(=O)oc2cc(-c3ccccc3)c(O)cc12)CC(C)C,25.8%

row,SMILES,"hERG current change (%, negative = inhibition) at 1uM"
1,O=C1Nc2ccccc2/C1=N/c1sc2c(c1C(=O)NCCc1ccccc1)CCCC2,7.93%
2,CC(Oc1ccccc1)C(=O)OCC(=O)Nc1sccc1C(N)=O (centres unmarked),3.53%
3,COc1cc(CCNC(=O)CCCn2c(=O)c3cccn3c3cccnc32)cc(OC)c1OC,14.4%
4,CCOc1ccc(CCNC(=O)CN2CCN(Cc3ccc(F)cc3)C2=O)cc1OCC,12.4%
5,CCCOC(=O)c1ccc(NC(=O)c2ccccc2[N+](=O)[O-])cc1,11.8%
6,O=C(Cn1nc(-c2ccccc2)ccc1=O)Nc1ccc(NC(=O)c2ccccn2)cc1,12.2%
7,Cc1ccc(C)c(S(=O)(=O)N2CCN(C(=O)CCc3nc4ccccc4c(=O)[nH]3)CC2)c1,-4.52%
8,CC(C)(Oc1ccc(Cl)cc1)C(=O)NC1CCN(Cc2ccccc2)CC1,-44.5%
9,Cc1cccc(NS(=O)(=O)c2cccc(C(=O)N3CCN(c4ccccn4)CC3)c2)c1,14.4%
10,CCn1c(SCc2nc3ccccc3nc2C)nnc1-c1cccs1,6.23%
11,COc1ccc(-c2cc(NC(=O)c3cncn3-c3ccccc3)ccc2OC)cc1,11%
12,CCCCOc1ccc(/C=C2/Sc3ccccc3C2=O)cc1,6.29%
13,COc1ccccc1CNN.Cl,13.8%
14,Cc1ccccc1C(=O)Nc1ccc(Cl)cn1,6.95%
15,O=C(COC(=O)c1cc[n+]([O-])cc1)Nc1ccc(SC(F)F)cc1,-0.0806%
16,CCOC(=O)c1ccc(S(=O)(=O)N2CCC(C(=O)NCC3CCCCC3)CC2)cc1,9.18%
17,Cc1cc(N2CCCC2)ccc1NC(=O)CN1C(=O)NC2(CCCCC2)C1=O,6%
18,CCOc1cc(NC(=O)C2CCCCC2)c(OCC)cc1NC(=O)c1ccccn1,11.9%
19,CCOc1ccc(N/C(C)=C/C(=O)c2ccc3c(c2)OCCO3)cc1,11.9%
20,Cc1ccc(S(=O)(=O)N2CCN(Cc3cc4c(cc3Br)OCCO4)CC2)cc1,6.52%
21,Cn1c(Oc2ccccc2NCc2cc(Br)ccc2O)cc(=O)n(C)c1=O,11.8%
22,CCN(CC)S(=O)(=O)c1ccc(N/N=C(\C)c2ccncc2)c([N+](=O)[O-])c1,13.6%
